In paper PMC4336329 (PLoS ONE, 2015):
Out of some 310,000 compounds screened, about 14,000 (4.5%) showed an effect of 50% or more. Effects have a minus sign here. The list shows a part of the results.

Target: human ether-à-go-go-related gene (hERG) potassium channel (human, UniProt Q12809)
Assay: primary screen, population patch clamp on CHO cells stably expressing hERG
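Note: peak tail current of the secondary pulse compared with the same well before compound.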

Chain of human ether-à-go-go-related gene (hERG) potassium channel (Q12809 whole entry, looked up): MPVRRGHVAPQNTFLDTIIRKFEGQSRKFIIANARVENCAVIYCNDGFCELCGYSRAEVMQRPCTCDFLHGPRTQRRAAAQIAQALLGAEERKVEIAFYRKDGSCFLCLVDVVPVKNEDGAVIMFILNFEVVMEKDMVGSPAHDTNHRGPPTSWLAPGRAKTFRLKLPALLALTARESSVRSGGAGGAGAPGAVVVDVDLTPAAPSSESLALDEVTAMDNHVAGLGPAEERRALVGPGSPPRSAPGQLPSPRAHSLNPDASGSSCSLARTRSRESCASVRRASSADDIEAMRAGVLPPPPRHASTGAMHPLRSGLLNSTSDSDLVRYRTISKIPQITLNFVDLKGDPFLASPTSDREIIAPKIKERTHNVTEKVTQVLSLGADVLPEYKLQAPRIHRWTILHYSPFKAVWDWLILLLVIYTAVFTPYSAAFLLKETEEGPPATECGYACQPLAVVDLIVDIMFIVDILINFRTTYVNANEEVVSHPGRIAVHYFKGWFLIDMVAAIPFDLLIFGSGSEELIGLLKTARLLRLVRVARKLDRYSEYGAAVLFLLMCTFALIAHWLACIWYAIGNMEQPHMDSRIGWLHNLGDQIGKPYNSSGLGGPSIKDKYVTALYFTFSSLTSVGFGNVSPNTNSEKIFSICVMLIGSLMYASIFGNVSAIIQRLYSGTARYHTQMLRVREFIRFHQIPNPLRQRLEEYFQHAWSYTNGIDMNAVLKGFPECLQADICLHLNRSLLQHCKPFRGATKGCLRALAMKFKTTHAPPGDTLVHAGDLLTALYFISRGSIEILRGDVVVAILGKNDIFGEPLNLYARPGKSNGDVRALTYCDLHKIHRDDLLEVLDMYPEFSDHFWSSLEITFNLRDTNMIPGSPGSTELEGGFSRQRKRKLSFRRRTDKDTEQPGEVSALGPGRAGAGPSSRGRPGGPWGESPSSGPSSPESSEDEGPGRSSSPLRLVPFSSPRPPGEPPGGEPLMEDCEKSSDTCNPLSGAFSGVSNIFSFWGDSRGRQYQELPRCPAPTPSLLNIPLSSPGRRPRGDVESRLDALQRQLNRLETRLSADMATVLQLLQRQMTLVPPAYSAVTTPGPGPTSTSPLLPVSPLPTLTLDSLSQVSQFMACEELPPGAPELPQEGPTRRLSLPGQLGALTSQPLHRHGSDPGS

Row | SMILES | hERG current change (%, negative = inhibition) at 10uM
1 | COC(=O)[C@@H](NCc1cccc(CN[C@H](C(=O)OC)c2ccccc2)c1)c1ccccc1 | -9.1%
2 | NCCNC[C@@H]1COC2(CCCCCCCCCCC2)O1 | 5.63%
3 | CCN(C(=O)c1ccc(NC(=O)Cc2ccccc2)cc1)c1ccccc1 | -28.6%
4 | COc1cccc(-n2nnnc2SCC(=O)NCCc2ccc(OC)c(OC)c2)c1 | 1.06%
5 | Cc1ccc(CO/N=C\Cc2snc(Sc3ncc(C(F)(F)F)cc3Cl)c2C#N)cc1 | 11.3%
6 | COC(=O)Cn1cnc2scc(-c3ccc(C)c(C)c3)c2c1=O | 9.7%
7 | CCc1cc2c(SCC(=O)c3ccccc3)ncnc2s1 | 7.93%
8 | C=CCn1c(SCc2c(C)noc2C)nc2cc(C(=O)O)ccc2c1=O | -9.92%
9 | O=C1CCC(C(=O)Nc2cccc(Br)c2)N1 (stereo not drawn) | 7.12%
10 | Cc1ccc2c(c1)C(O)(CC(=O)c1ccc(C)s1)C(=O)N2 (stereo not drawn) | 21.4%
11 | CS(=O)(=O)N1CCN(CCN2C(=O)c3cccc4cccc(c34)C2=O)CC1 | 7.17%
12 | COc1ccc(C2(C(=O)N3CCCC3)CCOCC2)cc1OC | 4%
13 | CC(C)CNS(=O)(=O)c1ccc(CCC(=O)N2CCN(Cc3ccc4c(c3)OCO4)CC2)cc1 | -54.4%
14 | COc1ccccc1S(=O)(=O)Cc1ccc(C(=O)NCC2CCCO2)o1 (stereo not drawn) | 10%
15 | COc1ccc(OCCN2CCN(S(=O)(=O)c3ccccc3C(F)(F)F)CC2)cc1 | -12.6%
16 | COc1ccc(CCNC(=O)CCS(=O)(=O)Cc2ccccc2C)cc1OC | 9.44%
17 | CON(C)S(=O)(=O)c1cccc(C(=O)Oc2ccc(N(C)S(=O)(=O)c3ccccc3)cc2)c1 | 21.3%
18 | Cc1ccc(C(=O)O)cc1NCc1ccncc1 | 18.7%
19 | CN1CCN(C(=O)c2ccc(-n3cccc3)cc2)CC1 | -20.3%

Row | SMILES | hERG current change (%, negative = inhibition) at 10uM
20 | O=C1/C(=C/c2cccnc2)SC(=S)N1NS(=O)(=O)c1ccccc1 | 15%
21 | CNC(=O)CSc1nnc(-c2ccco2)n1-c1cccc(OC)c1 | -0.723%
22 | CCOC(=O)CCn1c(=S)n(CCC(=O)OCC)c2ccccc21 | -40.6%
23 | Cc1ccc(S(=O)(=O)N2CCCCC2)cc1NC(=O)CSCC(=O)O | 18.3%
24 | NC(=S)Nc1c(Cl)cccc1Cl | 14.1%
25 | COc1ccc(C(=O)NC2CCCCC2)cc1S(=O)(=O)N1CCCC1 | -18.1%
26 | COc1cc(OC)cc(C(=O)Nc2nc(CC(=O)NCc3ccccc3OC)cs2)c1 | -8.49%
27 | CC(O)c1cccc(NC(=O)C2CCCCC2)c1 (stereo not drawn) | 31.1%
28 | COc1ccc(CCNC(=O)c2cc3c(=O)n4ccccc4nc3n(C3CCCCC3)c2=N)cc1OC | -76.6%
29 | Cc1ccc(NC(=O)CN2C(=O)COc3ccc(S(=O)(=O)N4CCCC4)cc32)cc1C | 3.44%
30 | CCOc1ccc2nc3c(cc2c1)CN(CCOC)C(=NC)S3.Cl | 11.2%
31 | CC1C=CCC2C(=O)N(c3cccc(C(=O)N4CCN(c5ccc(F)cc5)CC4)c3)C(=O)C12 (stereo not drawn) | -20.1%
32 | Cc1ccc(C(=O)NNS(=O)(=O)c2ccc(F)cc2)cc1 | 7.52%
33 | Cc1ccsc1C(=O)NCCc1c[nH]c2ccccc12 | 7.32%
34 | CSc1ccccc1C(=O)Nc1cccc(N(C)S(C)(=O)=O)c1 | -7.06%
35 | CC(C)(C)OC(=O)CN1C(=O)NC2(CCCc3ccccc32)C1=O (stereo not drawn) | 8.73%
36 | CC(C)C(=O)Nc1ccc(-c2nc3cccnc3o2)cc1 | 9.76%
37 | Cc1cc(C)cc(N(CCC(=O)O)S(=O)(=O)c2ccc(Cl)cc2)c1 | -17.4%
38 | COc1ccccc1C(c1nnnn1C(C)(C)C)N1CCCCCC1 (stereo not drawn) | -20.9%

Row | SMILES | hERG current change (%, negative = inhibition) at 10uM
39 | O=C(O)CC(Cc1ccc(Cl)cc1)C(=O)Nc1ccccc1 (stereo not drawn) | 11.8%
40 | O=C(NCCCCc1ccccc1)c1cccc(Br)c1 | -3.79%
41 | CCN(C(=O)COC(=O)c1cc(-c2ccccc2)nc2ccc(Br)cc12)C1CCS(=O)(=O)C1 (stereo not drawn) | 10.5%
42 | O=C(CSc1nc(O)c(Cc2ccccc2)c(=O)[nH]1)Nc1nnc(SCc2ccccc2)s1 | 19.6%
43 | OCCSc1nncn1/N=C/c1c[nH]c2ccccc12 | 2.28%
44 | C[C@]12CCC(=O)CC1=CCC1C3CC=C(C#N)[C@@]3(C)CC[C@@]12O (stereo partly drawn) | 17.4%
45 | O=C(O)C1Sc2[nH]c(=O)sc2C2c3ccc(O)cc3OC(=O)C12 (stereo not drawn) | 22.8%
46 | CCN(CC)CC(O)Cn1c(-c2cccc(Cl)c2)nc2cc(C)c(C)cc21 (stereo not drawn) | -62.8%
47 | Cc1ccc(/C=C(/NC(=O)c2ccccc2)C(=O)NCCc2c[nH]c3ccccc23)o1 | -21.3%
48 | COc1ccc(O)c(C2NC(CC(C)C)(C(=O)O)C3C(=O)N(Cc4ccccc4)C(=O)C23)c1 (stereo not drawn) | 0.866%
49 | Cc1cc(NC(=O)NC(C(F)(F)F)C(F)(F)F)no1 | 14.1%
50 | O=C(Nc1cccc(Cl)c1)C1COc2ccccc2O1 (stereo not drawn) | 11.3%
51 | Cc1nc2cc(Cl)ccc2n1CCO | 0.979%
52 | COc1ccc2ccc(O)c(CN3CCN(S(=O)(=O)c4cccc(C(F)(F)F)c4)CC3)c2c1 | 0.947%
53 | O=C(NNC(=S)NC(=O)c1ccco1)c1ccc(F)cc1 | 12.1%
54 | Cc1ccc(-n2cc(CNC(C)c3cnn(C)c3C)c(-c3ccc(F)cc3)n2)cc1 (stereo not drawn) | -30.7%
55 | Cc1ccccc1NC(=O)C[n+]1cc(-c2ccccc2)n2c1CCC2.[Cl-] | 12.9%
56 | CCCCC(=O)N/N=C/c1sccc1C | 13.3%
57 | CCCCN(CCCC)CCCNC(=O)CC1Oc2ccc(C)cc2NC1=O (stereo not drawn) | -49.5%
